Source: PubChem BioAssay AID686979 (National Center for Advancing Translational Sciences (NCATS), 2013)
“And” between values parts separate entries of the source, which are not always exact repeats. Equal values may be shown once. Out of some 420,000 compounds screened, about 50,000 (12%) were called active. This list was built around the results that the source calls inconclusive (neither active nor inactive); the mix of calls is not that of the screen. The call rests on the fitted dose curve; in most records, active means well fitted inhibition curve with a large enough effect; inconclusive means small, poorly fitted or top-dose-only effect; inactive means flat fitted curve, though single readings scatter. Where the call is inconclusive, the potency comes from a doubtful curve fit.
On the % scale 0 is the no-effect control and ±100 the full control effect; potency means the concentration at half of the fitted maximal effect; tags describe the fitted curve by direction and shape.

Assay: qHTS for Inhibitors of human tyrosyl-DNA phosphodiesterase 1 (TDP1): qHTS in cells in presence of CPT; further: nearly all actives have a fitted effect of over 55% in size
Settings: chicken DT40 Tdp1-/-;hTDP1 cells + 20 nM CPT, ATP luminescence, 48 h; activity change, negative = growth inhibition: at 46.2 µM (top of the series) unless noted
In short: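 Chicken DT40 Tdp1-/- cells complemented with human TDP1, 400 cells/well, exposed to compounds plus 20 nM camptothecin for at least 48 h at 37 C; viability read as ATP content by CellTiter-Glo luminescence.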
With `CCOC(=O)c1ccc(N2C(=O)c3n[nH]c(-c4ccco4)c3C2c2ccc(OCC)cc2)cc1` (centres undefined) the Potency was inconclusive: 20.6 µM [inhibitor, single point]. With `CCCC(=O)Nc1cc(C(=O)NCc2ccccc2)ccc1S(=O)(=O)c1ccc(Cl)cc1` the Potency was active: 20.6 µM. With `O=C(CSc1nnc(COc2ccccc2)n1Cc1ccco1)NCc1ccco1` the “activity change, negative = growth inhibition” value was inactive: 6.26%. In the case of `Cc1ccc(S(=O)(=O)N2CCOCC2)cc1NC(=O)CSc1nnc2cc(C)c3ccccc3n12`, the Potency was inconclusive: 29.1 µM [inhibitor, single point]. For `CCN(CC(=O)Nc1ccc([N+](=O)[O-])cc1OC)c1ccccc1`, the Potency was inconclusive: 18.4 µM [inhibitor, single point]. In the case of `O=C(Nc1cccc(NC(=O)c2ccccc2F)c1)c1ccccc1`, the Potency was inconclusive: 1.64 µM [inhibitor, partial curve]. With `O=C(Cn1cc(S(=O)(=O)N2CCCC2)c(S(=O)(=O)N2CCCC2)c1)Nc1ccccc1` the “activity change, negative = growth inhibition” value was inactive: 1.75%. With `CCN(c1ccccc1)S(=O)(=O)c1ccc(C(=O)N2CCN(c3ccccc3F)CC2)cc1` the Potency was inconclusive: 20.6 µM [inhibitor, single point]. For `Cc1c(Cl)cccc1NC(=O)c1ccc2c(c1)CCN2S(=O)(=O)c1ccccc1`, the Potency was inconclusive: 20.6 µM [inhibitor, single point]. For `O=c1c(-c2cc(-c3ccccc3)nc3c2COc2ccc(Cl)cc2-3)coc2ccc(F)cc12`, the “activity change, negative = growth inhibition” value was inactive: 3.4%. For `O=C(Nc1nc2n(n1)C(c1ccc(F)cc1)C=C(c1ccccc1)N2)c1ccco1` (centres undefined), the Potency was active: 16.4 µM. With `CSc1ccc(CCNC(=O)Cn2ccc3cc(S(=O)(=O)N4CCCCCC4)ccc32)cc1` the Potency was active: 14.6 µM. For `COC(=O)C[C@H]1C=C[C@H](NC(=O)c2ccc(F)cc2)[C@@H](CO)O1`, the “activity change, negative = growth inhibition” value was inactive: -3.56%. In the case of `Cc1ccc(-c2csc3ncnc(-n4cnc5ccccc54)c23)cc1`, the Potency was inconclusive: 29.1 µM [inhibitor, single point]. In the case of `Cc1ccc(CN2CCCN(CC(=O)Nc3ccc(C)cc3C)S2(=O)=O)cc1`, the Potency was inconclusive: 18.4 µM [inhibitor, single point]. In the case of `O=C1/C(=C/c2ccc3c(c2)OCO3)Oc2cc(OCC(=O)N3CCC[C@H]3C(=O)O)ccc21`, the Potency was active: 20.6 µM. For `CCCCSc1nnc2c(n1)OC(c1ccc(Br)s1)N(C(C)=O)c1ccccc1-2` (centres undefined), the Potency was inconclusive: 23.1 µM [inhibitor, single point]. In the case of `Oc1[nH]c2ccccc2c1N=Nc1c(F)c(F)c(C(F)(F)F)c(F)c1F`, the “activity change, negative = growth inhibition” value was inactive: 10.5%. With `c1ccc2c(c1)c1cccc3ccc4cccc2c4c31` the “activity change, negative = growth inhibition” value was inactive: -2.66%. With `CN(C)c1ccc(C(CNC(=O)c2ccccc2C(F)(F)F)N2CCOCC2)cc1` (centres undefined) the “activity change, negative = growth inhibition” value was inactive: -9.56%. For `O=C(COc1c(Br)cc(Br)c2cccnc12)Nc1ccccc1F`, the Potency was inconclusive: 16.4 µM [inhibitor, partial curve]. For `CC1CCCC(C)N1C(=O)CSc1nnc(-c2c[nH]c3ccccc23)o1` (centres undefined), the Potency was inconclusive: 20.6 µM [inhibitor, single point]. With `O=C1NC[C@H](Cc2ccccc2)N(C[C@@H]2CCCN2C[C@H](Cc2ccc(O)cc2)N2C[C@H](Cc3ccccc3)N(CCc3ccccc3)C(=O)C2=O)C1=O` the Potency was inconclusive: 29.1 µM [inhibitor, single point]. In the case of `O=C1NC(=S)N/C1=C/c1cc2c(cc1[N+](=O)[O-])OCO2`, the Potency was active: 4.11 µM. With `CC(=O)N1CCN(c2ccc(NC(=O)c3cccc(Cl)c3Cl)cc2)CC1` the “activity change, negative = growth inhibition” value was inactive: -20.5%. With `CN(C)CCNc1ncnc2c1cnn2-c1cccc(Cl)c1` the Potency was inconclusive: 29.1 µM [inhibitor, single point]. In the case of `COc1cc(OC)cc(C(=O)NNC(=O)Cc2cccs2)c1`, the “activity change, negative = growth inhibition” value was inactive: -7.38%. For `Cc1ccc(CNc2ccc3c(c2)OCO3)cc1`, the Potency was inconclusive: 18.4 µM [inhibitor, single point]. With `COc1ccc(-n2ncc(C(C)NS(=O)(=O)c3cc(C)sc3C)c2C)cc1` (centres undefined) the Potency was inconclusive: 29.1 µM [inhibitor, single point]. With `COC(=O)n1c(=O)oc2cc(S(=O)(=O)N3CCCCC3)ccc21` the “activity change, negative = growth inhibition” value was inactive: -22.3%. For `O=C1CC(NS(=O)(=O)c2cccnc2)CN1c1cccc(F)c1` (centres undefined), the “activity change, negative = growth inhibition” value was inactive: -0.269%. With `O=c1[nH]c(=O)n(-c2ccc(F)cc2)c2c1C(C(F)(F)F)(C(F)(F)F)N=C(c1ccc(F)cc1)N2` the Potency was active: 4.61 µM. In the case of `CCCOc1ccc(CNC(=S)NCc2ccc(OC(C)C)cc2)cc1`, the Potency was inconclusive: 29.1 µM [inhibitor, single point]. For `Cc1ccc(NS(=O)(=O)c2ccc(NC(=O)c3ccccc3C(=O)O)cc2)c(C)c1`, the “activity change, negative = growth inhibition” value was inactive: -0.794%. With `O=S(=O)(NCC(c1ccco1)N1CCN(c2ccccc2F)CC1)c1ccc(F)cc1` (centres undefined) the Potency was inconclusive: 29.1 µM [inhibitor, single point]. For `c1ccc2cc(CSCc3nc4ccccc4[nH]3)ccc2c1`, the “activity change, negative = growth inhibition” value was inactive: -27.7%. For `Cc1cc(C)c(NC(=O)c2ccc3nccnc3c2)c(C)c1`, the Potency was inconclusive: 18.4 µM [inhibitor, single point]. In the case of `O=C(Nc1ccc(S(=O)(=O)N2CCOCC2)cc1)C1COc2ccccc2O1` (centres undefined), the Potency was inconclusive: 23.1 µM [inhibitor, partial curve]. With `COc1ccc(NC(=O)CCCOc2ccc(Cl)c(C)c2)cc1S(=O)(=O)N1CCOCC1` the Potency was inconclusive: 25.9 µM [inhibitor, partial curve, poor fit]. For `CC1(C)CC(=O)C/C(=N\NC(=O)c2cccs2)C1`, the Potency was inconclusive: 29.1 µM [inhibitor, single point]. In the case of `COC(=O)C1=C(C)Nc2ncnn2C1c1ccc(OC(=O)c2ccccc2)cc1` (centres undefined), the Potency was active: 8.2 µM. For `CSc1ccc(/C=C/C(=O)c2ccc(NC(C)=O)cc2)cc1`, the Potency was active: 16.4 µM. For `Cc1ccc(-c2csc3ncnc(N4CCN(C(=O)c5ccco5)CC4)c23)cc1`, the Potency was inconclusive: 32.6 µM [inhibitor, single point]. For `CC(Oc1ccc(Cl)cc1)C(=O)Nc1ccccc1N1CCOCC1` (centres undefined), the Potency was inconclusive: 16.4 µM [inhibitor, single point]. For `O=C(NCC(c1ccco1)N1CCN(c2ccccc2F)CC1)C(=O)NC1CCCC1` (centres undefined), the Potency was inconclusive: 23.1 µM [inhibitor, single point]. For `COc1ccc(CN(CC2CCCO2)C(=O)CN2C(=O)C(C)Oc3ccc(C)cc32)cc1OC` (centres undefined), the Potency was inconclusive: 20.6 µM [inhibitor, single point]. With `C=CCn1c(NCc2ccc(OC)cc2O)nc2ccccc21` the Potency was inconclusive: 29.1 µM [inhibitor, single point]. In the case of `Cn1c(NCCOc2ccccc2)nc2cc(-c3ccc(F)cc3)sc2c1=O`, the Potency was inconclusive: 13 µM [inhibitor, partial curve]. In the case of `COc1ccc2nc3cc([N+](=O)[O-])ccc3c(NNc3ccc([N+](=O)[O-])cc3)c2c1`, the Potency was active: 10.3 µM. With `Cn1nnnc1SCCCNCc1cc(Cl)ccc1OCc1ccc(F)cc1` the Potency was inconclusive: 29.1 µM [inhibitor, single point]. With `CCOc1ccc(NC(=O)C(C)NC(=O)c2ccccc2Cl)cc1S(=O)(=O)N1CCCC1` (centres undefined) the “activity change, negative = growth inhibition” value was inactive: -16.2%. For `Cc1ccc(Nc2c(-c3ccccc3O)nc3cnccn23)cc1`, the Potency was inconclusive: 16.4 µM [inhibitor, single point]. In the case of `O=C(NCCSc1c(-c2ccccc2)[nH]c2ccccc12)c1cc2ccccc2oc1=O`, the Potency was inconclusive: 29.1 µM [inhibitor, single point]. For `Cc1ccc2nc(/C(C#N)=C/c3ccc(-c4cccc([N+](=O)[O-])c4)o3)[nH]c2c1`, the activity change, negative = growth inhibition was inconclusive: -31.1% [inhibitor]. In the case of `CCC1CN(C(=O)N2CCC(C(=O)Nc3ccccc3F)CC2)c2ccccc2O1` (centres undefined), the Potency was inconclusive: 18.4 µM [inhibitor, single point] and inconclusive: 29.1 µM [inhibitor, single point]. In the case of `CCOC(=O)CNC(=O)N1CCc2ccc(NC(=O)c3ccccc3Cl)cc2C1`, the Potency was active: 18.4 µM. With `C[C@H](NC(=O)c1nc[nH]c1C(=O)NC1CCNCC1)C(=O)OC(C)(C)C` the “activity change, negative = growth inhibition” value was inactive: 1.54%. With `Cc1cccc(CCNS(=O)(=O)c2ccc(S(=O)(=O)NC3CCCC3)cc2)c1` the Potency was inconclusive: 29.1 µM [inhibitor, single point]. With `COc1ccc(/C=C/c2ccnc3ccccc23)c(OC)c1` the Potency was active: 22.4 µM. In the case of `O=C1c2cccc3cccc(c23)C(=O)N1CC1CCN(S(=O)(=O)c2ccc(F)cc2)CC1`, the Potency was inconclusive: 8.2 µM [inhibitor, partial curve]. With `C=CCn1c(C)cc(-c2csc(NCC)n2)c1C` the Potency was inconclusive: 29.1 µM [inhibitor, single point]. For `COc1ccc([C@H]2CC(=O)C=C(c3cccc(C(C)C)c3)C2)cc1OC`, the Potency was active: 20.6 µM. In the case of `COc1ccc(-c2nc3cc(C)c(Br)c(C)n3c2Cc2ccc(C)cc2)cc1OC`, the Potency was inconclusive: 20.6 µM [inhibitor, single point]. For `O=C(COC(=O)c1ccco1)NCc1ccc(F)cc1`, the “activity change, negative = growth inhibition” value was inactive: 3.84%. With `Cc1cc(OCCn2nc(C(=O)O)c3ccccc3c2=O)ccc1C(C)C` the Potency was inconclusive: 23.1 µM [inhibitor, single point]. In the case of `COc1ccccc1CNC(=O)c1ccc2nc(N3CCCCC3)sc2c1`, the Potency was inconclusive: 16.4 µM [inhibitor, single point]. With `Cc1sc(NC(=O)/C=C/c2ccco2)c(C(=O)O)c1C` the “activity change, negative = growth inhibition” value was inactive: -2.1%. With `Cc1ccc(C)c(N2CCN(c3c(CN4CCCC4)c(=O)oc4ccccc34)CC2)c1` the Potency was active: 20.6 µM. For `Cc1cc(C2=NNC(=NC3CC3)SC2)c(C)n1-c1ccccc1`, the Potency was inconclusive: 20.6 µM [inhibitor, single point].
